# Results from PubChem BioAssay AID493208 (National Center for Advancing Translational Sciences (NCATS), 2011).
# About 340 (0.77%) of roughly 44,000 compounds were called active. About 5% were inconclusive and are not listed. Calls follow the shape of the dose curve; as a rule, active = well fitted inhibition curve with a large enough effect; inconclusive = small, poorly fitted or top-dose-only effect; inactive = flat fitted curve, though single readings scatter. The list shows a part of the results.
# Assay: Acumen qHTS Assay for Inhibitors of the mTORC1 Signaling Pathway in MEF (Tsc2-/-, p53-/-) Cells: Sytravon;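 also: plate controls were DMSO for no effect and rapamycin for full effect; nearly all actives have a fitted effect of over 50% in size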
# Settings: phospho-rpS6 immunofluorescence/PI, 24 h; series mostly up to 38.3 µM; activity change, negative = inhibition: at the top concentration
# How it was run: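 Readout is phospho-S6 Alexa 488 signal normalized to PI per well, reported as % active cells with thresholds set from rapamycin (7.5 nM) and DMSO controls. Cells: Tsc2-/-, p53-/- MEFs, 24 hrs compound at 37 C; PI cell number serves as viability.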
row,SMILES,"activity change, negative = inhibition"
1,COc1ccc(CCNC(=O)c2cnc3sc(N4CCOCC4)nn3c2=O)cc1,inactive: -7.34%
2,Cc1nn(C)c2c1c(-c1ccccc1)cc(=O)n2Cc1ccc(F)cc1,inactive: 1.94%
3,COc1ccc(-n2nc3ccc(NC(=O)c4cccc(OCCC(C)C)c4)cc3n2)cc1,inactive: 7.84%
4,COc1ccc(CNC(=O)c2cnc(N3CCCC3)nc2C)c(OC)c1,inactive: 2.16%
5,COc1ccccc1CNC(=O)C(NS(=O)(=O)c1ccc2c(c1)CCN2C(C)=O)C(C)C (stereo not given),inactive: 5.54%
6,CCOC(=O)c1cnc2ccc(OC)cc2c1Nc1ccc(OCc2ccccc2Cl)cc1,inactive: 5.23%
7,Cc1ccc(NC(=O)CCC(=O)N2Cc3ccccc3Oc3ncccc32)cc1Cl,inactive: -6.62%
8,COc1ccc(-c2nc3sc(CCNC(=O)Cc4ccccc4)c(C)n3n2)cc1,inactive: -5.25%
9,COc1ccc(C)cc1NC(=O)c1nnn(Cc2cccc(Br)c2)c1N,inactive: -3.66%
10,COc1ccc(C2=NS(=O)(=O)N(C)C(C(=O)NC(C)c3ccccc3)=C2)cc1 (stereo not given),inactive: -10.7%
11,CCCS(=O)(=O)N1CCC(n2c(C)nc3cccnc32)CC1,inactive: 6.4%
12,CCN(CC)S(=O)(=O)c1ccc2c(c1)N(CC(=O)NCCCN1CCN(c3ccc(OC)cc3)CC1)C(=O)CO2,inactive: 3.64%
13,Cc1ccc2oc(C(=O)Nc3ccc(S(=O)(=O)N4CCCCC4C)cc3)cc(=O)c2c1 (stereo not given),inactive: 5.24%
14,CCOC(=O)c1cc(-c2ccccc2)n(CCC(=O)NCCc2ccccc2)c1C,inactive: -17.4%
15,CCc1ccc(C(=O)c2cn(CC(=O)Nc3cc(OC)ccc3OC)c3ccc(Cl)cc3c2=O)cc1,inactive: -1.79%
16,COc1ccccc1NC(=O)CSc1cn(CC(=O)N2CCCC2)c2ccccc12,inactive: -6.05%
17,CC(=O)c1cccc(NC(=O)CCc2c(C)nc3nc(CN)nn3c2C)c1,inactive: 0.795%
18,CC(=O)N1CCc2c(sc3c2c(=O)n(-c2ccccc2Cl)c(=O)n3Cc2cccc(C)c2)C1,inactive: -4.54%
19,CC(C)(C)C1CCc2c(sc(NC(=O)c3noc4c3CCCC4)c2C#N)C1 (stereo not given),inactive: -0.864%
20,CCC1CCCCN1C(=O)CSc1nnc(-c2ccc(OC)c(OC)c2)o1 (stereo not given),inactive: -8.57%
21,Cc1ccc2nc(-c3cccs3)c(Nc3ccc4c(c3)OCCO4)n2c1,inactive: -24.6%
22,CCC(=O)N1CCc2cc(S(=O)(=O)NCc3ccc(C)cc3)ccc21,inactive: -1.88%
23,CN(C)c1ncc(C(=O)NCc2ccc(Cl)cc2)cn1,inactive: 0%
24,COc1ccccc1NC(=O)C1=C(C)Nc2nc3ccccc3n2C1c1ccccc1Cl (stereo not given),inactive: -0.725%

row,SMILES,"activity change, negative = inhibition"
1,CCOc1ccc(NC(=O)c2ccc(F)c(S(=O)(=O)N(Cc3ccc(C(=O)OC)cc3)Cc3ccc(OC)c(OC)c3)c2)cc1,inactive: 5.75%
2,O=C(Cn1cc(C(=O)c2ccco2)c2ccccc21)Nc1ccccc1,inactive: -3.98%
3,CCOc1ccc(N2CC(C)Cn3c2nc2c3c(=O)n(Cc3c(F)cccc3Cl)c(=O)n2C)cc1 (stereo not given),inactive: -8.65%
4,COc1ccc(Cl)cc1Nc1ccc2cc(S(=O)(=O)N3CCCCC3)ccc2n1,inactive: 0%
5,Cc1cc(OCC(=O)N2CCC(c3nc4ccccc4s3)CC2)ccc1Cl,inactive: 4.23%
6,O=C(CSc1ncc(-c2ccccc2)[nH]1)Nc1cccc(Br)c1,inactive: -3.18%
7,Cc1ccc(-c2nnn3c2nc(NC2CCC(C)CC2)c2ccccc23)cc1 (stereo not given),inactive: -16.1%
8,Cc1cc2n(n1)CCCN2C(=O)Nc1ccc(F)c(Cl)c1,inactive: -2.62%
9,CCOCCc1nnc(NC(=O)C(=O)c2cc(C)n(-c3ccc(Cl)cc3)c2C)s1,inactive: 0.0739%
10,COC(=O)CN1C(C(=O)c2ccccc2)=C(OC(=O)c2ccc(F)cc2)c2ccccc2S1(=O)=O,inactive: 0.631%
11,COc1cccc(-n2c(C)nc3cc(C(=O)O)ccc32)c1,inactive: 4.56%
12,COc1cc2nc(NC(=O)c3ccc(S(=O)(=O)N4CCc5ccccc54)cc3)sc2cc1OC,inactive: -6.97%
13,CC1CCCCN1C(=O)c1ccc2c(c1)N(Cc1ccc(F)cc1)C(=O)c1ccccc1S2(=O)=O (stereo not given),inactive: -13.3%
14,COc1cccc(-c2nc3c(C#N)c[nH]n3c2NC2CCCC2)c1OC,inactive: 2.87%
15,COc1ccc(CNC(=O)C2CCN(S(=O)(=O)c3ccc4c(c3)CCCN4C(C)=O)CC2)cc1,inactive: -6.97%
16,CCc1ccccc1NC(=O)c1sc(-n2nc(C)c(Cc3ccccc3)c2C)nc1C,inactive: -1.26%
17,COCc1cc(C)nc2sc3c(=O)n(-c4ccccc4C(F)(F)F)nnc3c12,inactive: -4.73%
18,Cc1ccc(C)c(CSc2nnc3[nH]c(=O)cc(-c4ccccc4)n23)c1,inactive: 0.648%
19,CCCn1cc(S(=O)(=O)c2cc(C)ccc2C)c(=O)c2cc(F)c(N3CCN(CC)CC3)cc21,inactive: -0.674%
20,CCOC(=O)c1c(S(=O)(=O)NCC(=O)NCc2ccccc2Cl)c(C)n(C)c1C,inactive: -0.121%
21,COCCCn1c(=O)c2sccc2n2c(CCCC(=O)NC3CCC(C)CC3)nnc12 (stereo not given),inactive: -4.01%
22,Cc1cccc(NC(=O)C2CCN(S(=O)(=O)c3ccc4c(c3)CCCN4C(=O)C3CCC3)CC2)c1,inactive: -12.8%
23,Cc1cccc(C)c1-n1ncc(C(=O)N2CCN(c3ncccn3)CC2)c1C1CCN(C(=O)OC(C)(C)C)CC1,inactive: -0.165%
24,COc1ccc(C(=O)N(Cc2ccc(N(C)C)cc2)CC2CCCO2)cc1 (stereo not given),inactive: 1.1%

row,SMILES,"activity change, negative = inhibition"
1,COc1cc(NC(=O)CSc2nc(-c3ccc(C(C)C)cc3)no2)cc(OC)c1,inactive: -14.5%
2,COc1ccc(NC(=O)CSc2cn(CCNC(=O)c3c(F)cccc3F)c3ccccc23)cc1,inactive: -3.05%
3,CCN1CCN(Cc2c(O)ccc3c(=O)c(Oc4ccccc4C(C)C)c(C(F)(F)F)oc23)CC1,inactive: 1.77%
4,Cc1ccc(NC(=O)CSc2nc3ccc(NC(=O)CCc4ccccc4)cc3s2)cc1,inactive: -2.16%
5,CCCN1CCN(CCCNC(=O)Cn2nc(C)n3c(cc4c(OC)cccc43)c2=O)CC1,inactive: 0.236%
6,Cc1ccc(CNC(=O)c2cc3ccc4cccnc4c3[nH]2)cc1,inactive: -18.2%
7,COc1ccc(-c2noc(-c3ccc(NC4CCCC4)c([N+](=O)[O-])c3)n2)cc1OC,inactive: 4.2%
8,Cc1ccccc1CNC(=O)c1ccc2nc(C(C)C)oc2c1,inactive: 2.23%
9,COc1cc(Cl)c(C)cc1NC(c1ccccc1)c1nnc(-c2ccccc2Cl)o1 (stereo not given),inactive: 1.56%
10,Cc1ccc(NC(=O)Cn2cnc3c2c(=O)n(C)c(=O)n3C)cc1C,inactive: 1.93%
11,CCN(C(=O)Cn1c(=O)n(Cc2ccccc2)c(=O)c2c1c1cc(OC)ccc1n2C)c1ccccc1,inactive: 0.636%
12,CC(=O)Nc1ccc2nc(NC(=O)CS(=O)(=O)c3ccc(C)cc3)sc2c1,inactive: 1.18%
13,CCC(C)n1c(=N)c(C(=O)NC2CCCCC2)cc2c(=O)n3ccccc3nc21 (stereo not given),inactive: 2.08%
14,Cc1ccc(C)c(N2CCN(S(=O)(=O)c3cn(C)c(C)n3)CC2)c1,inactive: -8.54%
15,COc1ccc(C2=Nc3ccc(OC(F)(F)F)cc3NC(c3cccnc3)=N2)cc1,inactive: -5.25%
16,Cc1ccc2c(=O)cc(C(=O)Nc3sc4c(c3C(=O)NCC3CCCO3)CCCC4)oc2c1C (stereo not given),inactive: 7.94%
17,Cc1ccc(Cl)cc1NC(=O)CCc1c(C)nc2c3cccnc3nn2c1C,inactive: -9.58%
18,O=C(c1cccc(Cl)c1)N1c2ncnn2C2(CCCCC2)[C@@H]2CCCC[C@@H]21,inactive: -14.9%
19,Cc1ccc2c(c1)N(C(=O)N1CCC(C(=O)NCCc3ccccc3)CC1)CC(C)O2 (stereo not given),inactive: 9.38%
20,COc1ccc(-c2ccc3c(N)c(C(=O)NCc4ccc(C)cc4)sc3n2)cc1,inactive: -23.7%
21,CC(C)(C)OC(=O)N1CCC(c2c(C(=O)NCCN3CCOCC3)cnn2-c2ccc(F)cc2)CC1,inactive: 5.21%
22,O=C(COc1ccc(F)cc1)Nc1nnc(SCc2cc(=O)n3ccccc3n2)s1,inactive: 12.9%
23,CCOc1ccc(-c2nonc2NC(=O)c2oc3cc(C)ccc3c2C)cc1OCC,inactive: 1.2%
24,COc1ccc(N2Cc3cccc(C(=O)Nc4ccc(Cl)cc4)c3C2=O)cc1,inactive: -1.7%

row,SMILES,"activity change, negative = inhibition"
1,O=C(Nc1nc2n(n1)C(c1ccccc1)C=C(c1ccc(Cl)cc1)N2)c1ccco1 (stereo not given),inactive: -0.141%
2,COc1cccc(Cn2c(SCc3ccc(C(=O)N4CCCCC4)cc3)nc3ccncc32)c1,inactive: 0.28%
3,Cc1cc(Cl)ccc1NC(=O)CN1C(=O)COc2ccc(S(=O)(=O)Nc3ccccc3)cc21,inactive: -7.69%
4,CCOC(=O)C1CCCN(C(=O)c2ccc3c(c2)sc2nc(-c4ccc(C)cc4C)cn23)C1 (stereo not given),inactive: 2.57%
5,Cc1ccc(CN(Cc2ccco2)C(=O)COc2cccc(C)c2C)o1,inactive: -6.5%
6,CC(=O)c1cccc(-n2c(=O)c3c4c(sc3n(CC(=O)Nc3ccccc3F)c2=O)CN(C(C)=O)CC4)c1,inactive: -0.498%
7,COc1cc(NC(=O)c2ccc3c(Cl)c4c(nc3c2)CCC4)cc(OC)c1OC,inactive: -15.7%
8,CC(C)(CC(=O)OCC(=O)Nc1ccccc1F)CC1=NS(=O)(=O)c2ccccc2N1,inactive: -13.1%
9,O=C(COc1ccc([N+](=O)[O-])cc1)N1CCC(c2nc3ccccc3s2)CC1,inactive: -12.1%
10,CCc1ccc(CNC(=O)C2CCN(c3nnc(C)c4c(C)n(-c5ccc(C)cc5)nc34)CC2)cc1,inactive: -8.99%
11,CCOc1ccc(N(C(C)C(=O)NCCSc2ccc(Cl)cc2)S(C)(=O)=O)cc1 (stereo not given),inactive: 2.13%
12,Cc1cc(NC(=O)c2cc(-c3ccc(Br)cc3)on2)nn1Cc1ccc(Cl)cc1,inactive: -4.13%
13,O=C(Nc1nnc(S(=O)(=O)N2CCCCCC2)s1)c1ccccc1F,inactive: -1.08%
14,O=C(Cn1nc(-c2ccccc2)c2cnc3ccc(F)cc3c21)NC1CCCC1,inactive: 1.01%
15,CCOC(=O)C1CCN(c2cc(C)nc3c(-c4ccccc4OC)c(C)nn23)CC1,inactive: 1.52%
16,CCOc1cccc2sc(N3CCN(C(=O)C(C)(C)C)CC3)nc12,inactive: 1.51%
17,Cc1nc(N2CCOCC2)c2c(C(=O)N(C)Cc3ccccc3)c(C)oc2n1,inactive: 4.57%
18,Cc1ccc(-c2nnc(SCC(=O)N3CCCc4ccccc43)o2)cc1,inactive: 4%
19,Cc1cc(NC(=O)CSc2nc3c([nH]c4ccccc43)c(=O)n2-c2ccccc2F)no1,inactive: -0.538%
20,CCCCNc1nc(Oc2ccc(=O)n(-c3ccccc3)n2)nc(N(CC)CC)n1,inactive: -5.37%
21,Cc1ccc(C(=O)c2oc3ccccc3c2NC(=O)c2cc(=O)c3cc(C)ccc3o2)cc1,inactive: -6.04%
22,COc1cccc(Cn2ccn(-c3ccc(F)cc3)c(=O)c2=O)c1,inactive: 6.62%
23,O=C(Nc1ccc(Cl)cc1)N1CCC(CN2CCCCCC2)CC1,inactive: -3.18%
